Test results: the supplement of paper PMC4967469

Legend:
Assay in all cases: Viability of human cancer cell lines after 72 h of drug (GDSC screen)
Pazopanib = compound: Cc1ccc(Nc2nccc(N(C)c3ccc4c(C)n(C)nc4c3)n2)cc1S(N)(=O)=O [Pazopanib]; conditions: top dose 8 µM
Description: (§1)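 Human cancer cell lines in 384-well plates, medium with 10% serum, drug for 72 h over a 256-fold dose range (nine 2-fold or five 4-fold steps up to the top dose). Adherent lines were fixed and stained with the nucleic acid dye Syto60, suspension lines read with resazurin; signal relative to control wells, capped at 0 and 100%. One two-parameter sigmoid per drug and line, fitted in a mixed model over all curves with the slope shared within a line.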

GDC0941 = compound: CS(=O)(=O)N1CCN(Cc2cc3nc(-c4cccc5[nH]ncc45)nc(N4CCOCC4)c3s2)CC1 [GDC0941]; conditions: top dose 4 µM; screen: GDSC drug entry 1527; top dose inferred
Description: as §1

CEP-701 = compound: C[C@]12O[C@H](C[C@]1(O)CO)n1c3ccccc3c3c4c(c5c6ccccc6n2c5c31)CNC4=O [CEP-701]; conditions: top dose 2 µM; top dose inferred
Description: as §1

AR-42 = compound: CC(C)[C@H](C(=O)Nc1ccc(C(=O)NO)cc1)c1ccccc1 [AR-42]; conditions: top dose 5.12 µM; top dose inferred
Description: as §1

SB 216763 = compound: Cn1cc(C2=C(c3ccc(Cl)cc3Cl)C(=O)NC2=O)c2ccccc21 [SB 216763]; conditions: top dose 10 µM; top dose inferred
Description: as §1

MG-132 = compound: CC(C)C[C@@H](C=O)NC(=O)[C@H](CC(C)C)NC(=O)[C@H](CC(C)C)NC(=O)OCc1ccccc1 [MG-132]; conditions: top dose 1 µM
Description: as §1

| Cell Line | AUC (Pazopanib) | IC50 (Pazopanib) [nM] | AUC (GDC0941) | IC50 (GDC0941) [nM] | AUC (CEP-701) | IC50 (CEP-701) [nM] | AUC (AR-42) | IC50 (AR-42) [nM] | AUC (SB 216763) | IC50 (SB 216763) [nM] | AUC (MG-132) | IC50 (MG-132) [nM] |
| --- | --- | --- | --- | --- | --- | --- | --- | --- | --- | --- | --- | --- |
| NCI-SNU-5 (stomach, suspension) | 0.986 | > 8000 | 0.65 | 656 | 0.823 | 1200 | 0.811 | 2760 | 0.989 | > 10000 | 0.866 | 914 |
| MS-1 (small cell lung carcinoma, suspension) | 0.97 | > 8000 | 0.946 | > 4000 | 0.953 | > 2000 | 0.327 | 112 | 0.99 | > 10000 | 0.991 | > 1000 |
| ES8 (Ewing sarcoma, adherent) | 0.966 | > 8000 | 0.706 | 906 | 0.513 | 135 | 0.4 | 174 | 0.985 | > 10000 | 0.725 | 257 |
| RL (B-cell lymphoma, suspension) | 0.986 | > 8000 | 0.834 | 2300 | 0.633 | 281 | 0.401 | 176 | 0.989 | > 10000 | 0.967 | > 1000 |
| D-392MG (glioma, adherent) | 0.845 | > 8000 | 0.922 | > 4000 | 0.683 | 492 | 0.713 | 1610 | 0.967 | > 10000 | 0.668 | 218 |
| JiyoyeP-2003 (Burkitt lymphoma, suspension) | 0.991 | > 8000 | 0.952 | > 4000 | 0.621 | 257 | 0.421 | 200 | 0.991 | > 10000 | 0.882 | 837 |
| Becker (glioma, adherent) | 0.905 | > 8000 | 0.679 | 847 | 0.757 | 767 | 0.929 | > 5120 | 0.983 | > 10000 | 0.812 | 617 |
| SK-MEL-1 (melanoma, suspension) | 0.993 | > 8000 | 0.973 | > 4000 | 0.687 | 384 | 0.718 | 1200 | 0.993 | > 10000 | 0.993 | > 1000 |
| MONO-MAC-6 (acute myeloid leukaemia, suspension) | 0.87 | > 8000 | 0.692 | 898 | 0.173 | 11.9 | 0.402 | 170 | 0.978 | > 10000 | 0.827 | 660 |
| D-263MG (glioma, adherent) | 0.956 | > 8000 | 0.611 | 538 | 0.786 | 1060 | 0.711 | 1450 | 0.948 | > 10000 | 0.683 | 228 |
| LB831-BLC (bladder, adherent) | 0.685 | 1660 | 0.859 | 3420 | 0.843 | 1450 | 0.627 | 723 | 0.911 | > 10000 | 0.704 | 237 |
| NB(TU)1-10 (neuroblastoma, adherent) | 0.993 | > 8000 | 0.992 | > 4000 | 0.908 | > 2000 | 0.432 | 214 | 0.98 | > 10000 | 0.898 | 959 |
| SUP-M2 (anaplastic large cell lymphoma, suspension) | 0.991 | > 8000 | 0.519 | 279 | 0.446 | 92 | 0.271 | 86.7 | 0.99 | > 10000 | 0.812 | 387 |
| A388 (skin, adherent) | 0.894 | > 8000 | 0.712 | 1100 | 0.886 | > 2000 | 0.82 | 3530 | 0.977 | > 10000 | 0.55 | 87.1 |
| NCI-SNU-1 (stomach, suspension) | 0.987 | > 8000 | 0.953 | > 4000 | 0.939 | > 2000 | 0.539 | 410 | 0.986 | > 10000 | 0.968 | > 1000 |
| BE2-M17 (neuroblastoma, adherent) | 0.987 | > 8000 | 0.893 | > 4000 | 0.656 | 343 | 0.66 | 901 | 0.97 | > 10000 | 0.836 | 688 |
| IST-SL1 (small cell lung carcinoma, semi-adherent) | 0.978 | > 8000 | 0.938 | > 4000 | 0.508 | 132 | 0.263 | 65.7 | 0.842 | 7310 | 0.694 | 224 |
| NH-12 (neuroblastoma, adherent) | 0.9 | > 8000 | 0.853 | 3730 | 0.553 | 177 | 0.27 | 64.4 | 0.897 | > 10000 | 0.971 | > 1000 |

The IC50 comes from the fitted curve, where viability falls to half of the control; fits outside the tested doses are given as limits. AUC is the area under the same curve over the 256-fold range up to the top dose, as a fraction: 1 means no effect, lower means more sensitive. For part of these data: Any top dose called inferred was derived from the fitted curves, not read from the paper. For part of these data: An entry number marks a drug with two screens in the source, which often give different values.
